These are yes or no findings as the source states them, for the method shown. Binding seen in cells or lysates may run through a third protein. Some entries that bind do so weakly or less than the wild type. Sequences can lack the tags named with a protein.
Legend:
Experiment in all cases: pull-down; GST fusion protein on glutathione beads (pre-incubated in 1% BSA) incubated overnight at 4°C with in vitro translated 35S-methionine labelled protein; SDS-PAGE and autoradiography; only the target purified
GST-TSHZ3fl = target: T1, GST-TSHZ3fl (UniProt Q8CGV9)
T1 sequence: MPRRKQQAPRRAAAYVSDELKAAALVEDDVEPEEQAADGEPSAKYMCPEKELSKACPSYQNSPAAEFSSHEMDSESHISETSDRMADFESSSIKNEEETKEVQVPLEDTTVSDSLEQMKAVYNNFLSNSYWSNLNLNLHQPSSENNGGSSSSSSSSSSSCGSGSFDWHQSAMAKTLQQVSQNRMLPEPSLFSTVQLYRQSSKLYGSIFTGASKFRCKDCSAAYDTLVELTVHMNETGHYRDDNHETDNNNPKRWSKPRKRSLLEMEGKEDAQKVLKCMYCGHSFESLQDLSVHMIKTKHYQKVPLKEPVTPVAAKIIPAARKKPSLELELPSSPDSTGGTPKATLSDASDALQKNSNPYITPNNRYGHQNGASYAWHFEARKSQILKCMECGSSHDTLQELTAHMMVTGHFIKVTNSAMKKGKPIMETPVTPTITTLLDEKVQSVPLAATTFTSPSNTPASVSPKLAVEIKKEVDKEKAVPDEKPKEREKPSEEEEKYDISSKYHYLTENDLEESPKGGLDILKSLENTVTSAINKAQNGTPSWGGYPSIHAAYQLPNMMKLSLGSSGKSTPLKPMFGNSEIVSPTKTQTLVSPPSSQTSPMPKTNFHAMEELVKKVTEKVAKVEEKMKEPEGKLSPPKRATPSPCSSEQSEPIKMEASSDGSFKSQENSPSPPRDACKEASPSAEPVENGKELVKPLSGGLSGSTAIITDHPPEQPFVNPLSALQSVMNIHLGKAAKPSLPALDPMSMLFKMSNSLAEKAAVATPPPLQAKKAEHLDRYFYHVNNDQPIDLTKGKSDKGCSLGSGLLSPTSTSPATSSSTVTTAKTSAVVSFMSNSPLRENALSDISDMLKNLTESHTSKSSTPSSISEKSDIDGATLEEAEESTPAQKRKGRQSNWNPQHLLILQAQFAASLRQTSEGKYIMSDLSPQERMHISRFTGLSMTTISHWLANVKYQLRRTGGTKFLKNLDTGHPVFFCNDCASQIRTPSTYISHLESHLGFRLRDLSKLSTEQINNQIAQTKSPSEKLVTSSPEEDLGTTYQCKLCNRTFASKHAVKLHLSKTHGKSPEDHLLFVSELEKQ

Protein sequences, listed by entry. Tags and fused reporters are not part of them.
UniProt P48436: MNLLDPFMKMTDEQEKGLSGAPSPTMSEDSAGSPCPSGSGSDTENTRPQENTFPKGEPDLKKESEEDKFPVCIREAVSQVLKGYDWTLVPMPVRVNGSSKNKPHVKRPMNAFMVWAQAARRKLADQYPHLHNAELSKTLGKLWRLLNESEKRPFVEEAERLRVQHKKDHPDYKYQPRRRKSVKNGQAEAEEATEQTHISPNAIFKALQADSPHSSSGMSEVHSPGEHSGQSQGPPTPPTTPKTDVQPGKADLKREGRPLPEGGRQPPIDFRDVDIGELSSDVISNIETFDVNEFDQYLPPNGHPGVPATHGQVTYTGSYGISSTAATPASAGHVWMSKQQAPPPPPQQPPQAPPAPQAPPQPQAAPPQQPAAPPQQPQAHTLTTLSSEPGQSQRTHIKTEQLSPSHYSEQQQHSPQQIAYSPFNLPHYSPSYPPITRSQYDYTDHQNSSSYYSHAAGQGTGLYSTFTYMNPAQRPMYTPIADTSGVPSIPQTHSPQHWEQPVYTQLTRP

GST-N-TSHZ3 = target: T2, GST-N-TSHZ3 (UniProt Q8CGV9)
T2 sequence: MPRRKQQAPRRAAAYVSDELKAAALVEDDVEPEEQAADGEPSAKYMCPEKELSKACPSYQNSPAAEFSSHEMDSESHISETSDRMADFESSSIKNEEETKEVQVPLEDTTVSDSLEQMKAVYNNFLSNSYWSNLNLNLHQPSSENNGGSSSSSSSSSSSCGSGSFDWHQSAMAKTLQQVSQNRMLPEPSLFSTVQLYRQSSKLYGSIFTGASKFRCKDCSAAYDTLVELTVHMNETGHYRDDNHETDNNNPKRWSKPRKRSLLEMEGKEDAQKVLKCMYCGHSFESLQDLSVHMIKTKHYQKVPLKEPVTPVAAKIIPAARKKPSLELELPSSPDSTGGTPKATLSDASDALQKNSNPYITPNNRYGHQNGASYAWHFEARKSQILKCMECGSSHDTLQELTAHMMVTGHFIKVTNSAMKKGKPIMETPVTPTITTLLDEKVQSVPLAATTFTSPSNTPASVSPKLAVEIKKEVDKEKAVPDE

GST-C-TSHZ3 = target: T3, GST-C-TSHZ3 (UniProt Q8CGV9)
T3 sequence: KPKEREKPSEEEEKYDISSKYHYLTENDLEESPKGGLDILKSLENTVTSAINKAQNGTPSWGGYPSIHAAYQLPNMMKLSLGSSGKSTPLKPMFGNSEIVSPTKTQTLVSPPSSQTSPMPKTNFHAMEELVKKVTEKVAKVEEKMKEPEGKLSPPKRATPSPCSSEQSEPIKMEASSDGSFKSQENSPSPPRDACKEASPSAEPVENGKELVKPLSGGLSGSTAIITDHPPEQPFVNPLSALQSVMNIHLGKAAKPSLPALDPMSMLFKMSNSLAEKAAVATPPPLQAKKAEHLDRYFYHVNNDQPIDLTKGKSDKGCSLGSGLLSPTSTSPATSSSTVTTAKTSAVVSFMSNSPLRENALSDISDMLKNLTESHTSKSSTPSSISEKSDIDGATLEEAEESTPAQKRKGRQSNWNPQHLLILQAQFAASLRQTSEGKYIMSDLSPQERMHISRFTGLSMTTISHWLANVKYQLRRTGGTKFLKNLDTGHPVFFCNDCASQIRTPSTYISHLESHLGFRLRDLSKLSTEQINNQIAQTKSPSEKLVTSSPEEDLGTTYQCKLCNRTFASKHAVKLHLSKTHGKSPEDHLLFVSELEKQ

## in vitro translated SOX9 (from UniProt P48436 1-509)
GST-TSHZ3fl
  binding: binds
GST-N-TSHZ3
  binding: binds
GST-C-TSHZ3
  binding: binds weakly
